Measurements: article PMC12136788
Some of the results follow.

B1: chr5:171862525:171862626:-|3pUTR|ENSG00000072803|msi1|total|mutant (ssRNA)
RNA: GGGAGUUCUACAGUCCGACGAUCGACAGUGCAUGGAAAGGACGUUGGCAUCCAAUUGGCACUCCUUCUCCCUUAUUCAAUAUCCGGUUUGAUUUGCCCUUCGCCAUUGUUUCCAAAGAUCAAGGAAUGUCAAUAACAUUUUAACAACAGAGGAUUGAGCAUCA
B2: chr8:20179120:20179484:-|CDS|ENSG00000036565|control|control|control (ssRNA)
RNA: GGGAGUUCUACAGUCCGACGAUCCAUCUUCUCCUUCUUCAACAACAACACCGUGGCUGUUGAAGAAAGCGUACCUAGUGGAAUAGCAUGGAUGAAUGACACUGCCAGCACCAUCCCACCUCCAGCCACUGAAGCCAUCUCAGCCAACAGAGGAUUGAGCAUCA
B3: ENSG00000070961:be:win_5301|3pUTR|ENSG00000070961|bound_else_gene|NA|bound_elsewhere_windowed (ssRNA)
RNA: GGGAGUUCUACAGUCCGACGAUCUUGCCUCUGUCUUUACCCUUUAGAAACUGGCAUGUGUUAGGGCCCAGAUUUCACCAGAUACACAAUCCUCAGGCUGACAUAAAGUUUACGAGGACUGCUACUAUAACUGAGAGUGCUGACCAACAGAGGAUUGAGCAUCA
B4: chr20:4701031:4701132:+|3pUTR|ENSG00000171867|msi1|FALSE|unique (ssRNA)
RNA: GGGAGUUCUACAGUCCGACGAUCCAUAGUUUCUGUAAUUGGCUUUUGAAUCAAAGAAUAGGGAGACAAUCUAAAAAAUAUCUUAGGUUGGAGAUGACAGAAAUAUGAUUGAUUUGAAGUGGAAAAAGAAAUUCUGUUAAUGUUCAACAGAGGAUUGAGCAUCA
B5: chr11:35810521:35810622:+|3pUTR|ENSG00000166326|unk|total|mutant (ssRNA)
RNA: GGGAGUUCUACAGUCCGACGAUCCCAGAAACCAUAAGACUCAGGCAGUUCUUGAUUCUGGAGGCCUGCCUGGUAAGAUAAGACCGUAUAAUUUGGAACUGAGAACAUACCAGAAACAGCAGAACGAGGGCCAGAGCAGAAAAACAACAGAGGAUUGAGCAUCA
B6: ENSG00000147394:stop:overlap|stop_codon|ENSG00000147394|stop_codon|NA|stop_codon (ssRNA)
RNA: GGGAGUUCUACAGUCCGACGAUCAUCAGAUCUUCAUUCACCGUGACACCAUUCACUGUGGGAAAUGCUAUGAGAAGCUCUUCUAGCGACCCCCCACCGCCAGGCUGAUCAGAAGCUGAUGACUCGUGGACAAAUUUGGCUGUCCAACAGAGGAUUGAGCAUCA
B7: chr1:220062840:220062943:-|CDS|ENSG00000162813|unk|total|mutant (ssRNA)
RNA: GGGAGUUCUACAGUCCGACGAUCGUUUACACAGGCAGGACCAGAUGCUGUGUUGGGGAGGACAAUCUGGGGAGUUUCCGGUUCCGGCGCCUUUGGGUUUCAGCUGAAAGAAGUCCCUGCUGGGAAACACAUUAUCACAACUACCAACAGAGGAUUGAGCAUCA
B8: chr11:123627604:123627705:+|3pUTR|ENSG00000023171|unk|total|mutant (ssRNA)
RNA: GGGAGUUCUACAGUCCGACGAUCAUUUGGAUCUAUAACUGUACUUUGCCUGGCGCUGUGCGCAAGGUCAGAAAACUUACUGCCCGUACCCCGAAACACACAAGGCUGCCCAGCCAAAUCUUAAUGUAAAGCCGCCCGAGCCAUCAACAGAGGAUUGAGCAUCA
B9: chr5:172042892:172042993:-|3pUTR|ENSG00000072786|msi1|total|mutant (ssRNA)
RNA: GGGAGUUCUACAGUCCGACGAUCGAUUCUCCCGCUUCAACCUUGAGCCGCUGGGACGACAGAUACAUGCUACUGCACCCAGCCCGGUUAAGGUUCUGUAUACUCUGUCUUUCUAAAGCAAUUCCCUGGAAAUUUUCUCAACAUCAACAGAGGAUUGAGCAUCA
B10: chr1:13148904:13149928:-|three_prime_utr|ENSG00000280267|control|control|control (ssRNA)
RNA: GGGAGUUCUACAGUCCGACGAUCCCUGGACCUGAGUGGCAUCAGACUGACCAAUUACAGUCUUGUGCCUCUCCAAAUUCUCCUAGAAAAAGUUGCAGCCACCCUUGAGUACCUGGAUUUAGAUGACUGUGGCAUCAUAGACUCCAACAGAGGAUUGAGCAUCA
B11: chr5:147393259:147393361:-|3pUTR|ENSG00000113657|msi1_unk|FALSE|overlapping (ssRNA)
RNA: GGGAGUUCUACAGUCCGACGAUCAGACCCAACCAUUUCUUCCACCUGCUUGAUUGUGCCAGUGUUUGCUCAGGCCUCUUUCUUAGUGUUGCUUUCAAAUCCUUCUCUUUCCUGGGUUGGGAAGGCCAGGCAGGGACAGAGCAACAACAGAGGAUUGAGCAUCA
B12: ENSG00000197122:stop:overlap|stop_codon|ENSG00000197122|stop_codon|NA|stop_codon (ssRNA)
RNA: GGGAGUUCUACAGUCCGACGAUCCCUUCCUGGAGGACUACUUCACGUCCACCGAGCCCCAGUACCAGCCCGGGGAGAACCUCUAGGCACAGGCGGGCCCAGACCGGCUUCUCGGCUUGGAUCCUGGGCUGGGUGGCCCCUGUCCAACAGAGGAUUGAGCAUCA
B13: ENSG00000124422:stop:overlap|stop_codon|ENSG00000124422|stop_codon|NA|stop_codon (ssRNA)
RNA: GGGAGUUCUACAGUCCGACGAUCACGUCCUGGACAGCGAAGGGUACUUGCUGUUCUAUCACAAACAGUUCCUGGAAUACGAGUAGCCUUAUCUGCAGCUGGUCAGAAAAACAAAGGCAAUGCAUUGGCAAGCCUCACAAAGUGCAACAGAGGAUUGAGCAUCA
B14: chr10:24620413:24620514:-|CDS|ENSG00000107863|msi1|FALSE|bound_elsewhere (ssRNA)
RNA: GGGAGUUCUACAGUCCGACGAUCGUGCUAAUGAAGUAUUGUCCAAGAAGUGCAUCUCAAGGAGCACUGACGUCUCCAUCUGUUAGUUUUAGUAAUCAUAGAACUCGUUCAUGGGAUUAUAUUGAGGGACAGGAUGAAACCUUACAACAGAGGAUUGAGCAUCA
B15: chr7:66152395:66152486:+|3pUTR|ENSG00000241258|msi1_unk|total|mutant (ssRNA)
RNA: GGGAGUUCUACAGUCCGACGAUCCGUUGAGAGGAUUGUUUAUUUGAUUUUUAUCCUCAUCCCAGCAGGCCUGGCUUUGUGGUCCGUUGGGUACAUCACAAAAAUAAGUUAAAAAGAAAUAUUUGUGCCUUGGGGAGAAGAAACCAACAGAGGAUUGAGCAUCA
B16: chr10:126014591:126014692:-|3pUTR|ENSG00000148848|msi1|FALSE|unique (ssRNA)
RNA: GGGAGUUCUACAGUCCGACGAUCAAAGGUUUGUCUCCUGAAAUUUUUUAAGUUUGUUUUCCUGACACAUGUAAUCAGAUGUGUAGCAACCGAGGGAAACGAAGCCUAACAUUCUCCAUUGUGGAAAUACACACAGGAGGUUACCAACAGAGGAUUGAGCAUCA
B17: chr5:133955728:133955829:-|3pUTR|ENSG00000113583|msi1|total|mutant (ssRNA)
RNA: GGGAGUUCUACAGUCCGACGAUCUCAAUAUGUAAAUAUGUGAUUUGAACCAUGGUUGACUUACAAGUGUCACUACAGCUUUUCCGAAAACACCGCCCUAAUAUAUGUUAAGCAGGACCCGGGUGAGCCAGUGGGCUUGCGCUUCAACAGAGGAUUGAGCAUCA
B18: chr15:52547342:52547511:-|3pUTR|ENSG00000128989|msi1|FALSE|unique (ssRNA)
RNA: GGGAGUUCUACAGUCCGACGAUCAACAUAUUUAAUAUUAUGCCCUUGGAUCUGUUACUGCAUCACUAGCACUUGUGAUGCAAUAGAACACUUCGCCUGUACUGAAAGGGCCAAGAGUAAAUGCCUUGUUUUGUUUUUUUGUUUCAACAGAGGAUUGAGCAUCA
B19: chr16:30351896:30351997:-|3pUTR|ENSG00000169217|unk|total|mutant (ssRNA)
RNA: GGGAGUUCUACAGUCCGACGAUCCUGGCACCCUCCACCUCCACGCCCCACCAGCAUUGCCUUACGCCUCCCUUGCCCCACGUCCGAUGGUUUCUUCCGGUUUUGCACUCUGGCUGCCCCUUGGAGUCUCCUGGGGAGCUGUAACAACAGAGGAUUGAGCAUCA
B20: chr15:63774837:63774950:-|CDS|ENSG00000103657|unk|FALSE|unique (ssRNA)
RNA: GGGAGUUCUACAGUCCGACGAUCGUAACAACAUUUCUUAAAGGAGUCACUAUUCCUAAUUCUGGGGCAGACACUUUAGGUCGUAGAUUAGCUUCUGAGUUGCUGCUUGGUUUGGCAGCUCAACGAGGCUCAUUGCGAUAUCUUCAACAGAGGAUUGAGCAUCA
B21: ENSG00000107863:be:win_5151|CDS|ENSG00000107863|bound_else_gene|NA|bound_elsewhere_windowed (ssRNA)
RNA: GGGAGUUCUACAGUCCGACGAUCUCUAGGAGAUGCCAAGAAUGAGAAAGAAGCACCUUCGUUAACUAAAGUGUUUGAUGUUAUGAAAAAAGGAAAGUCAACUGGGAGUUUACUGACACCCACCAGAGGCGAAUCCGAAAAACACAACAGAGGAUUGAGCAUCA
B22: chr2:210612109:210612263:+|CDS|ENSG00000021826|unk|FALSE|unique (ssRNA)
RNA: GGGAGUUCUACAGUCCGACGAUCUAUUGGUCGUACCUUUGAGGAGAGUUUCCAGAAAGCUUUACGGAUGUGCCACCCAUCUAUAGAAGGUUUCACUCCCCGUCUCCCAAUGAACAAAGAAUGGCCAUCUAAUUUAGAUCUUAGCAACAGAGGAUUGAGCAUCA

target: T1, UNK ZnF1-6 (called full-length) (human, UniProt Q9C0B0 30-357); experiment: nsRBNS (natural sequence RNA bind-n-seq); RBNS binding buffer (assumed for nsRBNS): 25 mM Tris pH 7.5, 150 mM KCl, 3 mM MgCl2, 0.01% Triton X-100, 500 ug/ml BSA, 20 U/ml SUPERase-In, 4 C; UNK is unkempt and MSI1 is Musashi-1; names of the RNAs are library labels; protein concentration not given here; high values mean tight binding
T1 sequence: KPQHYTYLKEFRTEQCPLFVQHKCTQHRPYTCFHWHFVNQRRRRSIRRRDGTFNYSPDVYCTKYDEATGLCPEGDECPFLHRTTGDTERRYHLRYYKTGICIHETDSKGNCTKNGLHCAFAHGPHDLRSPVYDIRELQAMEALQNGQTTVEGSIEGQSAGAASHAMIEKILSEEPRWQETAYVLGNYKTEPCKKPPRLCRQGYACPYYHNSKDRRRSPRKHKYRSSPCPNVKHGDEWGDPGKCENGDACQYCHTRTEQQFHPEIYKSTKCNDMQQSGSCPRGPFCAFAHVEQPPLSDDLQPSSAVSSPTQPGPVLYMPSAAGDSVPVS

| Binder | binding signal |
| --- | --- |
| B1 | 0.762 enrichment R |
| B2 | 0.437 enrichment R |
| B3 | 0.585 enrichment R |
| B4 | 0.645 enrichment R |
| B5 | 0.753 enrichment R |
| B6 | 0.671 enrichment R |
| B7 | 0.772 enrichment R |
| B8 | 0.583 enrichment R |
| B9 | 0.503 enrichment R |
| B10 | 0.577 enrichment R |
| B11 | 0.833 enrichment R |
| B12 | 0.684 enrichment R |
| B13 | 0.738 enrichment R |
| B14 | 1.35 enrichment R |
| B15 | 0.667 enrichment R |
| B16 | 0.363 enrichment R |
| B17 | 0.509 enrichment R |
| B18 | 0.525 enrichment R |
| B19 | 0.803 enrichment R |
| B20 | 0.542 enrichment R |
| B21 | 0.365 enrichment R |
| B22 | 0.606 enrichment R |
